The experiment addresses T1, human IGFBP-1 (human, UniProt P08833 26-259).
T1 construct: secreted recombinant protein purified from conditioned medium
T1 sequence (looked up): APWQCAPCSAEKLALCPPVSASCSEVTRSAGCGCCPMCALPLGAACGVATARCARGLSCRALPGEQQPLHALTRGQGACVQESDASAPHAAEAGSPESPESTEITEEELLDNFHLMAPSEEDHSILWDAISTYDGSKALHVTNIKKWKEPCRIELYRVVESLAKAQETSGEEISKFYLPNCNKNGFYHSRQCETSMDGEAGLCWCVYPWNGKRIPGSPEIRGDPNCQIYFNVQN
As to the kind of experiment: BIACORE, IGFBP-1 injected over Y31C IGF-I immobilized via disulfide linkage.

B1: Y31C IGF-I (purified, soluble) (ligand)
chain: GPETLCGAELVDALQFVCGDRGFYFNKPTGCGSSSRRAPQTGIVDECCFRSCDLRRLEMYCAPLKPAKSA
notes: immobilized onto the sensor chip surface via a disulfide linkage through the unpaired Cys 31; also called single-cysteine IGF-I variant
In turn, B1 had a Kd of 10 nM, a koff of 0.00038 s⁻¹ and a kon of 39000 M⁻¹ s⁻¹.

For the origin of these results see patent US20020160955A1 (published 2002).
